From the RNAGym collection of RNA variant scans (doi:10.1093/nar/gkz1192)
The source gives no read counts; variants with many changes may rest on few reads.

B1: CPEB3 Ribozyme (parent)
chain: UAACAGGGGGCCACAGCAGAAGCGUUCACGUCGCAGCCCCUGUCAGAUUCUGGUGAAUCUGCGAAUUCUGCUGUAUAUCUC

Variants of: B1
Assay: self-cleavage, relative activity (ratio to wild type); higher = more cleavage; in vitro, sequencing
Method in brief: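 After error-prone PCR and barcoding, CPEB3 ribozyme mutant libraries were transcribed with T7 RNA polymerase at 37°C for 5 hours, then given 15 min with DNase I before an EDTA stop, and they cleaved during both steps. Reverse transcription with template switching preceded Illumina sequencing. Relative activity divides a variant's cleaved/total read fraction by the unmutated ribozyme's. At least 5 reads were required per variant, and three batches were averaged.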

Variant | self-cleavage
U25C A35G A57C C68U U69C | 0.08
U25C A35G A57G G63A U69A | 0.11
U25C A35G A65G U69G | 0.09
U25C A35G C39A | 0.37
U25C A35G C71A | 0.13
U25C A35G C71U U72C U80C | 0.2
U25C A35G U41A U49A U60C U66C | 0.34
U25C A35G U41A U72C | 0.1
U25C A35G U43A A64G | 0.34
U25C A35G U43A U58C U69C | 0.19
U25C A35G U43C G52A | 0.18
U25C A35G U43C U78C | 0.22
U25C A35G U49A A64G G70C | 0.05
U25C A35G U51A | 0.38
U25C A35G U54A A56U A77U | 0.12
U25C A35G U67A U78C | 0.11
U25C A35G U69A | 0.2
U25C A35G U69A A75G | 0.11
U25C A35G U72C U78C | 0.38
U25C A35U A45G A65G | 0.18
U25C A35U A45G U60A | 0.16
U25C A35U A47G G61A U80C | 0.13
U25C A35U A56U | 0.34
U25C A35U A64U U69C | 0.03

Variant | self-cleavage
U25C A35U C38A U43G A64G U67C U78G | 0.19
U25C A35U C39U A77U | 0.12
U25C A35U C44U U74A | 0.36
U25C A35U U41C | 0.12
U25C A35U U43C | 0.14
U25C A35U U43C C68A U78C | 0.06
U25C A35U U43C U54C C62U | 0.21
U25C A45C A47G U67C | 0.23
U25C A45C G73C | 0.06
U25C A45G A47C | 0.44
U25C A45G A47U U72C | 0.07
U25C A45G A64G U72C | 0.14
U25C A45G C79A | 0.32
U25C A45G G52A | 0.5
U25C A45G G63A U72A U78C U80C | 0.07
U25C A45G U48A | 0.37
U25C A45G U49A | 0.19
U25C A45G U54C | 0.21
U25C A45G U58A C62U | 0.12
U25C A45G U78A | 0.19
U25C A45U A47U | 0.07
U25C A45U A64U U66C U67A U72A A75G | 0.03
U25C A45U G53U | 0.25
U25C A45U G70A | 0.15

Variant | self-cleavage
U25C A45U U49G C50A U51C U60C A64U | 0.1
U25C A45U U51C | 0.31
U25C A45U U51C U58C | 0.14
U25C A45U U66C | 0.14
U25C A45U U69C A75G | 0.07
U25C A47C U54A U66C | 0.7
U25C A47G A57G | 0.24
U25C A47G G52A | 0.11
U25C A47G U48C U49C U54C U76A | 0
U25C A47G U48C U67C G70A U78C | 0.12
U25C A47G U51A U67A C71U | 0.24
U25C A47G U51A U78A | 0.16
U25C A47G U51C A64G | 0.18
U25C A47G U54C | 0.15
U25C A47G U66C | 0.47
U25C A47G U72C | 0.24
U25C A47U A56G A64U | 0.16
U25C A47U A56G U66C U69C A75U | 0.05
U25C A47U A56U U80C | 0.5
U25C A47U U48C A57G | 0.09
U25C A47U U49A U78A | 0.07
U25C A56G A57G A65U U66C | 0.07
U25C A56G U66A | 0.44
U25C A56G U66C | 0.45

Variant | self-cleavage
U25C A56U A65G | 0.24
U25C A56U U60A U66G U78G | 0.06
U25C A56U U60C A64U | 0.11
U25C A56U U72A | 0.25
U25C A56U U76G | 0.32
U25C A57C U72C | 0.16
U25C A57G A64U U69C U80C | 0.12
U25C A57G C59U | 0.02
U25C A57G C81G | 0.2
U25C A57G U58A U80C | 0.21
U25C A57G U60A | 0.09
U25C A57G U60C | 0.13
U25C A57G U60C A64U | 0.17
U25C A57G U69C A77U | 0.03
U25C A57U A64U C68A | 0.28
U25C A64C U80C | 0.24
U25C A64G A77G | 0.47
U25C A64G C71G | 0.11
U25C A65G C68G | 0.11
U25C A65G U66C | 0.25
U25C A65G U72C | 0.3
U25C A65G U72C A75G | 0.09
U25C A65U U69C U78C | 0.14
U25C C27A C32A | 0.1

Variant | self-cleavage
U25C C27A G33A U41A U74A | 0.13
U25C C27A G52A | 0.47
U25C C27A U31C A45G U54C U67A C79A | 0.04
U25C C27A U31C C32U C44G | 0.13
U25C C27G U49C A65C | 0.15
U25C C27U A47U | 0.15
U25C C27U U43G U54A | 0.11
U25C C27U U76A U78A | 0.27
U25C C29A A35C C39A U43C G61C G70C | 0.05
U25C C29G U74A A77G | 0.31
U25C C29U U31C U49C U58C U72C | 0.09
U25C C29U U69A | 0.2
U25C C32A A56G C71U U80A | 0.06
U25C C32A C38U | 0.1
U25C C32A C44A U51C | 0.06
U25C C32A U41A | 0.48
U25C C32A U41A A47C U74C | 0.08
U25C C32U A35C | 0.22
U25C C32U A35U U76C | 0.13
U25C C32U G33U A35U U41C C44U A47G | 0.04
U25C C32U G36U | 0.09
U25C C32U U48C U54C A57G C68G | 0.05
U25C C32U U49C | 0.17
U25C C34A C50G U58G U60A | 0.09

Variant | self-cleavage
U25C C34A U58C | 0.13
U25C C34G A45G U69C | 0.14
U25C C34G G61A U78A | 0
U25C C34G U78A | 0.05
U25C C34U U41C U67C U69A | 0.05
U25C C34U U66C C71A U72A U80A | 0.05
U25C C37A U51A U54C U58A | 0.17
U25C C37G U67C | 0.51
U25C C37U A45G G53U U69A | 0.07
U25C C37U A56G A65G C79U | 0.19
U25C C37U U80C | 0.32
U25C C38A A47U | 0.15
U25C C38A G61A U69C | 0.08
U25C C38A G63A U66C | 0.1
U25C C38A U49C U69G C71A | 0.11
U25C C38U A56G A57G A77G U78C | 0.06
U25C C38U A57G U69C U72C | 0.14
U25C C38U U41C U49C U72C | 0.11
U25C C39A A45G C50G U60C | 0.33
U25C C39A C50U U60C | 0.12
U25C C39A U43C U54C | 0.14
U25C C39U A45U U74A | 0.06
U25C C39U G42A A47G U74A | 0.11
U25C C40A G42U | 0.11

Variant | self-cleavage
U25C C40G U43C | 0.21
U25C C40G U67A | 0.12
U25C C40U U54G A56G | 0.09
U25C C44G U48C U72C A75U A77C | 0.19
U25C C50U A56G | 0.22
U25C C50U U69C U78C | 0.35
U25C C50U U78C | 0.21
U25C C59U G63A | 0.18
U25C C62U U80C | 0.26
U25C C68U U69C U72C | 0.05
U25C G30A A45U U48C U72A A77G C79U | 0.1
U25C G30A A47G U48C A56U | 0.07
U25C G30A C40A U43A U72A | 0.09
U25C G30A U41C U54C U69A U78C | 0.07
U25C G30A U43C | 0.41
U25C G30A U51C U74A A77C | 0.43
U25C G30A U60C | 0.4
U25C G30A U78C | 0.38
U25C G30C C37A C39A U48C U74C | 0.08
U25C G30C C44U U74G | 0.2
U25C G33A A35G A45G U49C | 0.05
U25C G33A A35G U41A | 0.26
U25C G33A A35U | 0.08
